Sequences and labels used below:
B1: ENSG00000136451:be:win_1601|3pUTR|ENSG00000136451|bound_else_gene|NA|bound_elsewhere_windowed (ssRNA)
RNA: GGGAGUUCUACAGUCCGACGAUCAAUAUUUACCAGCAACUUAACUUUUAGUUGAUUAAAGCAAAAAGUAAACCAUGAAAUUGGGAGAUUUUAUUACAUUAGUUAAUAAGAGUGUGGUAGCAUUUUUCUCCAAUUUGGCUGGGACAACAGAGGAUUGAGCAUCA
B2: chr2:32415436:32415554:+|CDS|ENSG00000115760|unk|total|mutant (ssRNA)
RNA: GGGAGUUCUACAGUCCGACGAUCUGGGACUUUGGUUCAGUGCUUGAGGCUGCCAAAGUUUGCAGAGGAGGAGAAUCUUUGUACCGACUCAAUAACUCCUUGUGCUGACGGAAUUCAUUUGUUGGCCGGACUGCGGACAUGCCCCAACAGAGGAUUGAGCAUCA
B3: ENSG00000136451:be:win_4351|3pUTR|ENSG00000136451|bound_else_gene|NA|bound_elsewhere_windowed (ssRNA)
RNA: GGGAGUUCUACAGUCCGACGAUCCCCCUCCUACGGUGUGCUCCUGAAUGAAGGUUUCUAUGUAAGCAGAUGAUGAUUUUACCUGUCAAUACCAGCACUGUAUUACUAACAUGCAAAAUACUGCAGAUUUAUUUUGAAAAUUAACAACAGAGGAUUGAGCAUCA
B4: chr19:12898785:12899385:-|three_prime_utr|ENSG00000161860|control|control|control (ssRNA)
RNA: GGGAGUUCUACAGUCCGACGAUCUCAGAAGUACAGACCAACAGAGAUGGUGAAUGCUGACAGCUGCCGGGAGACUCACGCCUUAGUGACAGUCUCCAGGAGAAGACUGUGAGGCCACCAUUUGGGCCACACUGAGAAAUUGUUCAACAGAGGAUUGAGCAUCA
B5: chr1:205434884:205440924:-|three_prime_utr|ENSG00000281406|control|control|control (ssRNA)
RNA: GGGAGUUCUACAGUCCGACGAUCUGCCUGCUUCUGGCUGGGGCUUGGAGCAGGAAGCCGUGUGUGUAUCUUAAGUCUUGAUUUAGCCAGUGCUCUUCUCAGCCUGACUCUCACCCGAGGGCAUCAGCCUCCUGUGUGCCUCUCCAACAGAGGAUUGAGCAUCA
B6: chr1:20111938:20114255:-|three_prime_utr|ENSG00000117215|control|control|control (ssRNA)
RNA: GGGAGUUCUACAGUCCGACGAUCACCAGAAGCGACUGCGUUUCUACUGGCGGCCCCACUGCCGGGGGCAGACCCCUGGGUGCUAGAAGCCCACACCCUCUACCCUGUUCCUCAGCAUGGAGCUCUGGCAUCCCCACCUCAGUACAACAGAGGAUUGAGCAUCA
B7: chr10:43184366:43184487:+|3pUTR|ENSG00000169826|unk|total|mutant (ssRNA)
RNA: GGGAGUUCUACAGUCCGACGAUCCCGUUUAUUUGAGCCAGCUCUAUCAGGGUCUUCCCAUGGUGGUUCAGAACCGAUGAGCACCGCAUGGUUUUGUUUGUUUUUGCUUUCAAUUUUCUAAUUUGGCAUGGAUCCAUAUGUAUUCAACAGAGGAUUGAGCAUCA
B8: chr4:185586528:185586629:-|3pUTR|ENSG00000154556|msi1|FALSE|unique (ssRNA)
RNA: GGGAGUUCUACAGUCCGACGAUCAUCCAUAUGAUAUGUUGUACAUUUUAUGGAAAUGUAAUAGAAUCUCACACAUUAUUUUAUAGAAAUAGAGUACAGAAGCAUCACAAGUAUUAAAGUUGGUUUUAGCAAGGAUUAGGAUUACAACAGAGGAUUGAGCAUCA
B9: chr11:125776112:125777381:-|three_prime_utr|ENSG00000196844|control|control|control (ssRNA)
RNA: GGGAGUUCUACAGUCCGACGAUCCACUACGCUCUUUUUCUCUUCCCUGAACCUGAAUUUUGCUCUCCUCUUCUAUGCAUUGGUAGAGAGUGAGAAAGCCAGCUCAUAGUGAAAAGACAAGCAGGCAUAAGGAGACGCAGUGUGCAACAGAGGAUUGAGCAUCA
B10: chr11:62152232:62152344:+|3pUTR|ENSG00000149503|unk|FALSE|unique (ssRNA)
RNA: GGGAGUUCUACAGUCCGACGAUCUGCUCUGUAAAUAGUUGUUUUAAUUUAGCUGAAUGUUAGCAUUUUAGUCUUUGGCAUUUUAGCGUUUGGGAGGUAGAUUAAUAAAGUAUAUUCCUUCAAGCCUGCUGUUGAUACCAUGAACAACAGAGGAUUGAGCAUCA
B11: chr4:17704999:17705206:-|CDS|ENSG00000047662|control|control|control (ssRNA)
RNA: GGGAGUUCUACAGUCCGACGAUCAAUCAAACAUCAGACAGAAGAGGAGAAGAAACAUCUCAAAGACCAGCUAGUGAAGCGACUAGAAGACUUGGUAAAGAAGCACACCGUGGAAAUCAAAUCCGUUCGCUCGUCCGUGGAGGCCAACAGAGGAUUGAGCAUCA
B12: ENSG00000120451:stop:overlap|stop_codon|ENSG00000120451|stop_codon|NA|stop_codon (ssRNA)
RNA: GGGAGUUCUACAGUCCGACGAUCCUGCUACCACCUCUGCCUCAGAUACCCCAGGCAACUCUAAGAGGAUGGGUGUCUCCUCUUAGCUGGUUAUUCACGCCUUCUUCCCAGGUCAGGGAAGUAGAGUUACUCGGCCACCAGAGACAACAGAGGAUUGAGCAUCA
B13: chr6:132680848:132683139:-|three_prime_utr|ENSG00000112299|control|control|control (ssRNA)
RNA: GGGAGUUCUACAGUCCGACGAUCGAUAAUUUAAAAAAUGAUGGAUGAGAAAAGAAAGAUUGGUCCGGGUUAAUAUUAUCCUCUAGUAUAAGUGAAUUACUAGUUUCUCUUUAUUUAGACAAACACACACACACCAGAUAAUAUCAACAGAGGAUUGAGCAUCA
B14: ENSG00000198589:be:win_8751|3pUTR|ENSG00000198589|bound_else_gene|NA|bound_elsewhere_windowed (ssRNA)
RNA: GGGAGUUCUACAGUCCGACGAUCGCUGCUGGGUUCUGUAGUUUUAAAAAAUCUAUAUUUUUAGUCAUAAUGAGAAGUCUAUUUUCACCAAUUAUGGAAACAUACAGUGGAGCAAGUAAACCACUUAUUCCAGCUAUAAUAUUACAACAGAGGAUUGAGCAUCA
B15: ENSG00000113300:stop:overlap|stop_codon|ENSG00000113300|stop_codon|NA|stop_codon (ssRNA)
RNA: GGGAGUUCUACAGUCCGACGAUCUGGAGCUCUUACUGCCUUUCCUGCCCCAAGUCAACGGCAUCCACCUUCCUGGCAGGAGGUAGUCAAGCACCUUCAGAGGACAGCCUUGAUUCACUUGUAAACUUGUGAAAAUCUGAACAUCAACAGAGGAUUGAGCAUCA
B16: chr7:157539055:157540713:-|three_prime_utr|ENSG00000155093|control|control|control (ssRNA)
RNA: GGGAGUUCUACAGUCCGACGAUCACGGAUGUUGUCAGGAAUCAUGAUCUGACUUUAAUUGUGUGUCUUCUAUUAUAACUGCAUAGUAAUAGGGCCCUUAGCUCUCCCGUAGUCAGCGCAGUUUAGCAGUUAAAAGUGUAUUUUCAACAGAGGAUUGAGCAUCA
B17: chr14:59746188:59746291:-|CDS|ENSG00000139970|unk|total|mutant (ssRNA)
RNA: GGGAGUUCUACAGUCCGACGAUCCUGGGUACACCCGGCCCCUCCUUACCAGAUGUGCCUGGGACCGAGUCUCGUGGCUUAUUCCGUUCUGAUUCUGGAACCGAGAUGACUCCUGCAGAGUCCACGGAAGUGAACAAGAUCUUACAACAGAGGAUUGAGCAUCA
B18: chr2:120222042:120222143:-|CDS|ENSG00000226479|msi1|total|mutant (ssRNA)
RNA: GGGAGUUCUACAGUCCGACGAUCGAAAUUUUCCCAUUUUUAAGAGAAUAUGGGAACAUUUCAUAUGAUCUCCAUCACGAAGACCGUGAAGAUGCUGAAGAAACAUCAGUUCCAGAAGCUCCGAAAAUUGCUCCAAUAUUUGGACAACAGAGGAUUGAGCAUCA
B19: chr14:53038166:53038268:-|3pUTR|ENSG00000100523|unk|FALSE|unique (ssRNA)
RNA: GGGAGUUCUACAGUCCGACGAUCGAGCUUUUGGCAGAGUCUUCGGGGUUUUCUAGGUAUAAAAUCAUAUCAGCGAAGAGAGCUAGUUUGAUUUCUUUUCCCAGUUGGAUGCCUUUUAUUUAUUUCUCUUGCCUGAUUGCUCUACAACAGAGGAUUGAGCAUCA
B20: ENSG00000107863:be:win_5651|CDS|ENSG00000107863|bound_else_gene|NA|bound_elsewhere_windowed (ssRNA)
RNA: GGGAGUUCUACAGUCCGACGAUCCCACGACCGACACACCUUUGUCUCUUCAUUGCAACACAGGCAGUUCUUCCAGCACCUUGGCUUCAACAAACAGGCCCCUUCUUUCCAUACCACCACAGUCACCUGACCAAAUAAACGGAGCAACAGAGGAUUGAGCAUCA
B21: chr5:160402147:160402258:-|3pUTR|ENSG00000164609|unk|total|mutant (ssRNA)
RNA: GGGAGUUCUACAGUCCGACGAUCAUGGUUUACAUUACCGUUUGUUUUCAUUGUGAUUGCCCCUAUGUAACAAUCAUGAAUAUCCGAUUUUUUAAAUUGCCGAAUAUCCUAAUAUUUACCGCCAGCAGCUGUUACUUUGUUUGUCAACAGAGGAUUGAGCAUCA
B22: ENSG00000105355:stop:overlap|stop_codon|ENSG00000105355|stop_codon|NA|stop_codon (ssRNA)
RNA: GGGAGUUCUACAGUCCGACGAUCCGUGGCUCGUGGGACCCUUUGCCCCUGGAAUCACUGAGAAAGCCCCGGAGGAGAAGAAGUAGGGGGAGAGGAGAGGACUCAGCGGGCCCCGUCUCUAUAAUGCAGCUGUGCUCUGGAGUCCAACAGAGGAUUGAGCAUCA

Some of the results follow.

This assay has as its target MSI1 full-length (mouse, UniProt Q61474 1-362). The assay can be described thus: nsRBNS (natural sequence RNA bind-n-seq); RBNS binding buffer (assumed for nsRBNS): 25 mM Tris pH 7.5, 150 mM KCl, 3 mM MgCl2, 0.01% Triton X-100, 500 ug/ml BSA, 20 U/ml SUPERase-In, 4 C; UNK is unkempt and MSI1 is Musashi-1; names of the RNAs are library labels; protein concentration not given here; high values mean tight binding.
UniProt Q61474, sequence (Q61474 whole entry): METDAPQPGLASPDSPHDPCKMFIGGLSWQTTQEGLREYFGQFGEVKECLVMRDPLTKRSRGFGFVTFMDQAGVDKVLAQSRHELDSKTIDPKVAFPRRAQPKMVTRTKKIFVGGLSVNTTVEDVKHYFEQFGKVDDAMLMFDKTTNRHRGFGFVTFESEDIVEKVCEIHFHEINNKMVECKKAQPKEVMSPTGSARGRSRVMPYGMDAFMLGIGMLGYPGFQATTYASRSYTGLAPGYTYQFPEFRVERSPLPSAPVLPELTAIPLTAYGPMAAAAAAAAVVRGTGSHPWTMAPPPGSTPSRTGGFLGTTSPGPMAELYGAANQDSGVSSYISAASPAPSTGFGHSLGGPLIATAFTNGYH
In turn, B1 yielded a binding signal of 1.37 enrichment R.

Molecule B2 returned a binding signal of 0.47 enrichment R.

In the case of B3, the binding signal turned out to be 0.692 enrichment R.

With B4, the binding signal was 0.289 enrichment R.

For B5, the binding signal is 0.476 enrichment R.

B6 yielded a binding signal of 0.646 enrichment R.

B7: the binding signal worked out at 0.39 enrichment R.

B8: the binding signal turned out to be 34.5 enrichment R.

In the case of B9, the binding signal was 0.399 enrichment R.

Turning to B10, the binding signal came out at 70 enrichment R.

Consider B11, for which the binding signal came out at 0.62 enrichment R.

The molecule B12 registered a binding signal of 0.534 enrichment R.

Turning to B13, the binding signal turned out to be 13.8 enrichment R.

Take B14: the binding signal came to 4.06 enrichment R.

With B15, the binding signal was 38.7 enrichment R.

For the molecule B16, the binding signal stood at 7.04 enrichment R.

With B17, the binding signal is 0.317 enrichment R.

As for B18, the binding signal is 0.106 enrichment R.

As for B19, the binding signal is 0.593 enrichment R.

On to B20, for which the binding signal is 0.459 enrichment R.

B21: the binding signal is 0.471 enrichment R.

For the molecule B22, the binding signal stood at 0.721 enrichment R.
